In all, about 310,000 compounds went through this assay and about 2,200 (0.71%) showed an effect of 50% or more. The effect is printed as a negative number. The list shows a part of the results.
Target: human ether-à-go-go-related gene (hERG) potassium channel (human, UniProt Q12809)
Assay: primary screen, population patch clamp on CHO cells stably expressing hERG

Sequence of human ether-à-go-go-related gene (hERG) potassium channel (Q12809 whole entry, looked up): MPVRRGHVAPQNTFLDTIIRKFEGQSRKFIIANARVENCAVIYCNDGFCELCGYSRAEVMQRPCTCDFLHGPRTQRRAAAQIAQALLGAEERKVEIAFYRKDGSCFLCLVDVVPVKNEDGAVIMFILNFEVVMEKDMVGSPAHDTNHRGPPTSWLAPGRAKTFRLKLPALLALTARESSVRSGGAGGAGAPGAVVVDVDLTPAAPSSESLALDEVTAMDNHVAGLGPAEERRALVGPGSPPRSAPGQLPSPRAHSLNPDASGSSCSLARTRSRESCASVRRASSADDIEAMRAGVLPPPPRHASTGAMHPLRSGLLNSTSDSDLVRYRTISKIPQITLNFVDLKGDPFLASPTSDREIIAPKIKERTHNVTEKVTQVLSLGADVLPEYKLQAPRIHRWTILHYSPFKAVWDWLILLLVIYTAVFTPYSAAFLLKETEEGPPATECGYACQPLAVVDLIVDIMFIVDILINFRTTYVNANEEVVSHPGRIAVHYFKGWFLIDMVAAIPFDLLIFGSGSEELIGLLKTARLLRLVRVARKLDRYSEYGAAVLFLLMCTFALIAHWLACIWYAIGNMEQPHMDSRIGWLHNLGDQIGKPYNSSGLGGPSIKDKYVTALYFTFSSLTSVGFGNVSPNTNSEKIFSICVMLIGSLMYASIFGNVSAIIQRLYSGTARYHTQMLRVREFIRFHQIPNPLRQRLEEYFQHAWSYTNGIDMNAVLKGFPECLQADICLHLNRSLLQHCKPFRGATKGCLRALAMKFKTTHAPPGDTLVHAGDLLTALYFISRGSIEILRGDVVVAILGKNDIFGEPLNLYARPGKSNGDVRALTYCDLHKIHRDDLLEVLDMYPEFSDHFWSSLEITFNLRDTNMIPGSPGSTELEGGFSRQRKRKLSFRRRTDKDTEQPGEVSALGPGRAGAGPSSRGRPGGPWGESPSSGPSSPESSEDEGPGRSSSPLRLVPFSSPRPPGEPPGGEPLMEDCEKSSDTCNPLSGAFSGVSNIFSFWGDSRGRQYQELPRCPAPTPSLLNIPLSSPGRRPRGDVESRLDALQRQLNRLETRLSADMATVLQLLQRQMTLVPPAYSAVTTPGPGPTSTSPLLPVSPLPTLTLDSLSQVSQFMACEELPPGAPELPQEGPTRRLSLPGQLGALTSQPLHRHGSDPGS

Structure (SMILES) | hERG current change (%, negative = inhibition) at 1uM [%]
Oc1ccc(/C=N/NC(=S)NC2CC3CCC2C3)cc1 (stereo not shown) | 12.4
CC(C)(C)[C@@H]1C=C(C(=O)N2CCN(Cc3ccccc3)CC2)O[C@H](OCCCCO)C1 | 11.7
COc1ccccc1OCC(=O)N1CC2(C)CC1CC(C)(C)C2 (stereo not shown) | 5.05
COc1ccc2cc3cc(C(=O)NCCN4CCN(Cc5ccccc5)CC4)oc3nc2c1 | -9.26
CC(=O)c1c(O)n(C2CCCCCC2)c(=O)[nH]c1=O | 9.59
Cc1noc(C)c1CSCC(=O)N(C)CC(=O)Nc1ccc(F)c(F)c1F | 21.5
COc1cccc(CN2C(=NC(=O)CCC3CCCC3)SC3CS(=O)(=O)CC32)c1 (stereo not shown) | 12.9
CN1CCN(/C=C2\SC(=S)NC2=O)CC1 | 12.8
CCc1nc2ccc(C(=O)NCCc3ccccc3OC)cc2nc1CC | 7.22
COc1ccc(CNc2ccc3c(c2)nc(C)n3C)cc1 | -9.96
O=C(N/N=C\c1ccccc1)c1cccc(C(=O)N/N=C\c2ccccc2)n1 | 7.86
Cc1nccn1CCC(=O)O.Cl | 5.56
CCOC(=O)c1ccc(NC(=O)CSc2ccc(-c3ccccn3)nn2)cc1 | 2.65
CCOc1ccc(N(CC(=O)NCc2ccccc2)S(=O)(=O)c2c(C)noc2C)cc1 | 9.52
CCOC(=O)C1C(=O)OC(C)(C)C1C(C)C(=O)c1ccc(C)cc1 (stereo not shown) | 4.69
CC(O)[C@H]1CNC(=O)C(=O)N1CCCCC1CCCCC1 (stereo partly shown) | 12.3
Cl.NC1=NC(c2cccc(Cl)c2)N(CCc2ccc(F)cc2)C(N)=N1 (stereo not shown) | 14.8
CCOC(=O)N1CCN(CC(=O)Nc2nc3ccccc3s2)CC1 | 1.23
C=CCNC(=O)COC(=O)c1cc(S(=O)(=O)N2CCCCC2)ccc1Cl | 9.82
NS(=O)(=O)c1ccc(CCNC(=O)[C@@H]2CCCN2S(=O)(=O)c2ccccc2F)cc1 | -0.666
Cn1c(CN2CCCCC2)nc2cc([N+](=O)[O-])ccc21 | -2.57
CC(C)Oc1ccc(NC(=O)Oc2ccccc2)cc1 | 5.56
Cc1ccc(Sc2ccc(/C=N/O)cc2[N+](=O)[O-])cc1 | 14.9

Structure (SMILES) | hERG current change (%, negative = inhibition) at 1uM [%]
COc1ccccc1NCC(=O)N/N=C(\C)c1ccc(Br)s1 | 5.63
Cc1cccnc1NC(=S)NC(=O)/C=C/c1ccccc1 | 7.1
CN(CCOc1ccccc1)CCOc1ccccc1 | 5.27
CCCCCCCCCCCCN1[C@@H](CC(=O)OC)c2cc(F)ccc2S1(=O)=O | 7.11
CC(C)CNC(=S)N1CCC(c2nc(-c3ccc(F)cc3)no2)CC1 | 3.85
COc1ccc(-c2nnc(SCCC(=O)O)n2-c2ccccc2)cc1 | 4.49
CCC(OC(=O)C1=Cc2ccccc2OC1)C(=O)NC1CCCC1 (stereo not shown) | -0.674
Oc1ccc(-c2c(C3=CCCCC3)sc3ccccc23)cc1 | 13.2
O=C(O)/C=C\C(=O)O.S=C(NC1CCCCC1)N1CCC(c2cnc[nH]2)CC1 | -3.21
COC(=O)c1ccccc1NC(=O)Nc1cccnc1 | 5.29
C=CCNc1nc(C)c(CNc2c(C)cc(C)cc2C)nc1C#N | 7.83
CCN(CC(=O)NCc1ccc(F)cc1)CC(O)COCc1cccc(OC)c1 (stereo not shown) | -14.5
Cn1c(=O)oc2cc(S(=O)(=O)Nc3cccc(C(=O)O)c3)ccc21 | 21.8
O=C(CN1CCOCC1)Nc1ccc([N+](=O)[O-])cc1Br | -11.7
CCn1c(SCC(=O)OC2CCCCC2)nc2ccccc2c1=O | -3.23
CCCCN1C(=O)C(O)(CC(=O)c2c(C)n[nH]c2C)c2cc(Br)ccc21 (stereo not shown) | 8.7
CSc1ccc(Cl)c(C(=O)N2CCOc3ccccc32)c1 | 1.03
Cc1cc(C)c(NC(=O)CNC(=O)CN2C(=O)NC3(CCCc4ccccc43)C2=O)c(C)c1 (stereo not shown) | 9.9
O=C(Cc1ccc(F)cc1)NCC1CCCO1 (stereo not shown) | 7.61
Nc1cccc2c1C(=O)N(c1ccccc1)C2=O | -2.75
CC(=O)c1ccc(NC(=O)CSc2cn[nH]n2)cc1 | 15.1
CC(C)Oc1cccc(C(=O)Nc2ncn[nH]2)c1 | 10.6
CCN(CC)S(=O)(=O)c1cccc(-c2nnc(SCC(=O)c3cc(C)n(C4CC4)c3C)o2)c1 | 15.4

Source: publication PMC4336329 (PLoS ONE, 2015)
